# Measured values taken from PubChem BioAssay (NCATS).
# This is one part of the list. Shown are side measurements of this screen, not its main read-out; they come without a call. Compounds called inactive in the main read-out are mostly missing here. The note in brackets gives the kind of curve behind each potency; many fits are weak.
# Assay: qHTS Assay for Lipid Storage Modulators (AID 1519)
# Settings: Drosophila S3 cells, BODIPY lipid droplet/cell ratio, laser cytometry; measured here: lipid (BODIPY) channel AC50; cells loaded with oleic acid
# In short: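 Cells seeded at 5,000 per well were treated with compounds over a concentration series and loaded with oleic acid (400 uM, as added). Lipid droplet fluorescence (488 nm excitation, 500-530 nm channel) was read by laser-scanning cytometry and normalized to 20 uM Triacsin C.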
# Tags tell the direction and shape of the fitted curve.
row,Structure (SMILES),AC50
1,CCCn1c(=O)c(C)cn2nc(N)nc12,"15.8 µM [rising, partial curve]"
2,CCNc1ncc2nc(-c3ccccc3)c(=O)n(Cc3cccc(OC)c3)c2n1,"1 µM [rising, full curve, poor fit]"
3,COc1cccc(-c2cncnc2NCCc2c[nH]c3ccc(OC)cc23)c1,"0.447 µM [rising, full curve]"
4,N#C[C@H](Cc1ccc(O)cc1)c1ccc(O)cc1,"8.91 µM [rising, full curve, poor fit]"
5,COc1ccc(CNc2ccnc(-c3ccoc3)n2)c(OC)c1,"3.55 µM [rising, partial curve, poor fit]"
6,COc1ccc(-c2nc3cnc(OC)nc3n(C3CC3)c2=O)cc1,"2.51 µM [rising, partial curve, poor fit]"
7,O=C(c1cc(C(F)(F)F)cc(C(F)(F)F)c1)N1CCC2(CC1)CN(c1ncccn1)C2,"0.0158 µM [rising, full curve, poor fit]"
8,Cc1cccc(CNc2ncncc2-c2cccnc2)c1,"3.55 µM [rising, partial curve, poor fit]"
9,COc1ccc(-c2nc3cnc(N(C)C)nc3n(-c3ccccc3)c2=O)cc1,"0.224 µM [rising, partial curve]"
10,COc1ccc2c(OC)c3ccoc3nc2c1OC,"0.112 µM [rising, full curve]"
11,O=c1cc(-c2ccccc2O)oc2c(O)c(O)ccc12,"28.2 µM [rising, partial curve]"
12,CNc1ncncc1-c1ccccc1CN(C)C,"1.58 µM [rising, full curve, poor fit]"
13,Cc1c(C2CCN(CCc3ccccc3)CC2)noc1-c1ccc(Cl)cc1,"0.794 µM [rising, full curve, poor fit]"
14,COCCn1c(=O)c(C)nc2cnc(OCc3ccccc3)nc21,"1.26 µM [rising, full curve]"
15,COc1ccc(-c2cc(=O)c3ccccc3o2)cc1,"0.0141 µM [rising, full curve]"
16,COc1ccc(Oc2ncc3nc(CCc4ccccc4)c(=O)n(CCC#N)c3n2)cc1,"2.82 µM [rising, partial curve]"
17,COc1ncc2nc(CCc3ccccc3)c(=O)n(CCC#N)c2n1,"0.0631 µM [rising, full curve]"
18,O=c1c(CCc2ccccc2)nc2cnc(N3CCOCC3)nc2n1C1CC1,"0.398 µM [rising, full curve, poor fit]"
19,c1ccc(CNc2nc(-c3cccnc3)nc3ccccc23)cc1,"0.562 µM [rising, full curve]"
20,COc1ccc(C(=O)N2CCC[C@@]3(CCN(C(=O)Nc4cccc(F)c4)C3)C2)cc1,"5.01 µM [rising, partial curve]"
21,CN(CCc1ccc(Cl)c(Cl)c1)C[C@@H](O)COc1ccc(NS(C)(=O)=O)cc1,"15.8 µM [rising, partial curve, poor fit]"
22,COc1ccccc1-c1cc(N(C)Cc2ccco2)ncn1,"3.55 µM [rising, full curve, poor fit]"
23,FC(F)(F)c1ccccc1-c1cc(NCc2cccnc2)ncn1,"14.1 µM [rising, partial curve]"
24,COc1ccc(C(=O)N2CCC3(CC2)CN(c2ccccc2)C3)cc1,"1.12 µM [rising, partial curve, poor fit]"
25,O=c1c(-c2cccs2)nc2cnc(N3CCNCC3)nc2n1CCc1ccccc1,"0.631 µM [rising, full curve, poor fit]"
26,CN1CCN(c2ncc3nc(-c4ccccc4)c(=O)n(Cc4cccs4)c3n2)CC1,"10 µM [rising, partial curve]"
27,COc1ccc2[nH]cc(CCNc3cc(-c4ccccc4Cl)ncn3)c2c1,"1.41 µM [rising, full curve, poor fit]"
28,COc1ccc(-n2c(=O)c(-c3cccc(F)c3)nc3cncnc32)cc1,"0.631 µM [rising, full curve]"
29,COc1cccc(Cn2c(=O)c(-c3cc(F)cc(F)c3)nc3cnc(OC)nc32)c1,"0.891 µM [rising, partial curve]"
